# From the supplement of paper PMC7826260
# The other results are listed elsewhere or left out. Cleavage of a single-stranded DNA pool by Rep nickase domains was read by sequencing at 3 µM enzyme and 37 °C for 1 h; the strands have 90 letters, of which the middle is given. Uncut reads are compared with the no-enzyme pool on a log2 scale; more negative means more cut, near 0 not cut, and no call is made. Shares of all reads are compared; uncut strands gain when others are lost, and binding without cutting may add a little.
# Legend:
# Test in all cases: uncleaved DNA left, log2 of reads against the no-enzyme library (log2 ratio); higher = less cleavage (more negative = more Rep cleavage of the k-mer); sequences stand for … in CTCGTCCG…ACCGGAGA
# [1] = test system: T1, Rep nickase domain of Muscovy duck circovirus
# T1 sequence (residues 1-111, tag not shown): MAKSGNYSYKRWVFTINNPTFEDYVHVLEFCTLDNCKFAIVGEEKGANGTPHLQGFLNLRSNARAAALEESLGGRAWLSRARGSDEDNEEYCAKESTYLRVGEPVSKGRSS
# Description: (§1)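 A pool of 90-nt single-stranded DNAs with seven random bases just before the constant AC of the nick site (name = the seven bases) was cut by 3 µM recombinant His6-SUMO-tagged Rep nickase domain (300 nM DNA, 50 mM HEPES pH 8.0, 50 mM NaCl, 1 mM MnCl2, 1 h, 37 °C, three replicates). Uncut DNA was amplified and sequenced.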
# [2] = test system: T2, Rep nickase domain of banana bunchy top virus
# T2 sequence (residues 1-94, tag not shown): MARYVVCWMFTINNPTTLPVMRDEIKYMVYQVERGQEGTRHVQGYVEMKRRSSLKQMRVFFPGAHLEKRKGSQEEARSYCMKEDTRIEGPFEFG
# Description: as §1
# [3] = test system: T3, Rep nickase domain of cabbage leaf curl virus
# T3 sequence (residues 1-116, tag not shown): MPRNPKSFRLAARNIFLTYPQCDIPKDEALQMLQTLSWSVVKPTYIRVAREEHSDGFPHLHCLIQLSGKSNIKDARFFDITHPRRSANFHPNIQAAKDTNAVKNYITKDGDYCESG
# Description: as §1
# [4] = test system: T4, Rep nickase domain of chickpea chlorotic dwarf virus
# T4 sequence (residues 1-124, tag not shown): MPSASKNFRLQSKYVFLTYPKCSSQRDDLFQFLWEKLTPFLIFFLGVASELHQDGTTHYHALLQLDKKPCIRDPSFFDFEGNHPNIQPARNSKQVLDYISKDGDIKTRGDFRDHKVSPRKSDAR
# Description: as §1
# [5] = test system: T5, Rep nickase domain of faba bean necrotic yellows virus
# T5 sequence (residues 1-98, tag not shown): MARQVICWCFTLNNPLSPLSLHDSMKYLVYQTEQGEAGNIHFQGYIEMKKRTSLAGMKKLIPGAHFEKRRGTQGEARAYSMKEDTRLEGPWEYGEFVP
# Description: as §1
# [6] = test system: T6, Rep nickase domain of maize striate mosaic virus
# T6 sequence (residues 1-117, tag not shown): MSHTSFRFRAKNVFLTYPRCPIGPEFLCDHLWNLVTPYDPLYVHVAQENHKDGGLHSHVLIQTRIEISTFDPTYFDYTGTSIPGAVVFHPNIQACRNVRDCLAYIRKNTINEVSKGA
# Description: as §1
# [7] = test system: T7, Rep nickase domain of porcine circovirus 2
# T7 sequence (residues 2-116, tag not shown): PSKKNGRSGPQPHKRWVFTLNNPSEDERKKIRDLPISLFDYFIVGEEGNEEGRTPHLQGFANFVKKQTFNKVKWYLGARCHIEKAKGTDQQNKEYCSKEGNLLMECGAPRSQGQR
# Description: as §1
# [8] = test system: T8, Rep nickase domain of tomato golden mosaic virus
# T8 sequence (residues 1-124, tag not shown): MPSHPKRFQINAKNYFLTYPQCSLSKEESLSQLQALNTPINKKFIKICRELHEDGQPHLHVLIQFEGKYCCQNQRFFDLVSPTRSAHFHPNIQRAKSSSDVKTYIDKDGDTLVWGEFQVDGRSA
# Description: as §1
# [9] = test system: T9, Rep nickase domain of tomato yellow leaf curl virus
# T9 sequence (residues 1-136, tag not shown): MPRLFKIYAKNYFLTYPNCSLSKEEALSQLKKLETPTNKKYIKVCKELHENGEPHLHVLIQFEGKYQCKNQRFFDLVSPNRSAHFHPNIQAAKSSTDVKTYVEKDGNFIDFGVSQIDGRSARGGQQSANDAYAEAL
# Description: as §1
# [10] = test system: T10, Rep nickase domain of wheat dwarf virus
# T10 sequence (residues 1-137, tag not shown): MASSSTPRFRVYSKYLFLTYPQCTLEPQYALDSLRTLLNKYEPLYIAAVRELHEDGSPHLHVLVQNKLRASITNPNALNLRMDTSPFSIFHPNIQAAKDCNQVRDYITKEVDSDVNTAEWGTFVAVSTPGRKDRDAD
# Description: as §1
Sequence,uncleaved DNA left (log2) [1],uncleaved DNA left (log2) [2],uncleaved DNA left (log2) [3],uncleaved DNA left (log2) [4],uncleaved DNA left (log2) [5],uncleaved DNA left (log2) [6],uncleaved DNA left (log2) [7],uncleaved DNA left (log2) [8],uncleaved DNA left (log2) [9],uncleaved DNA left (log2) [10]
GAGTCGC,-0.0267,-0.0259,-0.142,-0.129,0.0884,-0.549,-0.9,-0.0398,0.000298,0.134
GTGTCAC,-0.0496,-0.00195,0.195,0.958,-0.0706,1.8,-0.0448,0.0637,-0.0924,0.142
GACAAGG,0.0382,0.0953,0.294,1.12,0.0448,0.686,0.233,0.223,0.0601,0.012
AACAAGC,0.109,0.0944,-0.14,0.114,-0.0466,-0.746,0.148,0.0819,-0.025,-0.0495
CGCAGCA,-0.0316,0.121,0.264,0.767,-0.0145,0.743,-0.187,0.107,-0.0118,0.0818
TGGCAGG,0.15,0.0666,0.357,0.756,0.153,0.597,0.177,0.0766,-0.0564,0.14
TCCCAAT,0.0321,0.0413,0.111,-0.349,-0.128,-0.206,0.00828,0.00181,0.0636,-0.0976
GAGGGCG,-0.00891,0.0499,-0.717,-0.118,0.0493,-0.62,0.155,0.0381,0.0501,-0.16
CGAACCG,-0.0413,0.0299,-0.748,-0.696,0.0339,-0.985,0.0649,-0.00978,-0.0168,-0.104
TACTGTA,-1.01,-0.145,-0.0675,-0.868,-0.00715,0.659,-2.79,-0.127,-0.00742,0.064
AGTATGA,-0.0513,0.0631,0.0803,0.437,0.0725,-0.0218,-0.0904,-0.0696,-0.0059,-0.018
CACCATC,0.167,0.18,-0.00428,-0.677,0.0824,-0.926,-0.134,0.0582,0.0679,0.075
ACCATTT,0.127,0.0363,-0.478,-1.97,0.0958,-1.08,0.0677,0.0331,0.186,0.126
TGCAGAT,0.0589,-0.0154,0.21,0.887,0.13,0.985,0.123,0.113,-0.0269,-0.0199
CTTCAAA,0.167,0.11,0.16,-0.125,0.108,-0.502,0.039,0.116,0.0598,0.106
TGCCCTA,-0.0325,-0.00086,0.25,0.0698,-0.0353,0.149,-0.205,-0.0858,0.0632,0.103
GGCGCTG,-0.0157,-0.0394,0.0481,0.595,0.0267,1.76,0.0902,0.019,-0.106,0.00908
TCCAATG,0.021,-0.0217,-0.254,-0.428,0.0372,-0.906,0.113,-0.0275,0.136,-0.0484
GATATGA,0.086,0.0642,0.302,0.689,0.0934,0.681,0.0737,0.106,-0.0119,0.0762
TATTCTT,-3.99,-3.95,-2.78,-3.04,-1.01,-0.447,-4.08,-1.33,0.0087,-1.99
TGAGGAG,0.0529,-0.0574,0.0979,0.85,0.00283,0.591,0.226,0.149,-0.076,0.0705
AGTGAGT,-0.0868,-0.00978,-0.00809,0.25,-0.17,0.776,-1.04,0.0819,-0.0652,-0.0357
GTCCTCA,0.08,0.123,0.457,0.991,0.135,1.78,0.152,0.231,0.174,0.109
GGTCCAG,-0.0254,0.0492,0.685,1.44,0.0349,1.65,0.207,0.15,0.0577,0.151
GTAGTAC,-0.0605,0.0546,0.307,0.774,-0.00727,1.63,-0.619,0.048,0.0988,0.0193
TGTCTTG,0.0203,0.0393,-0.111,-0.764,0.0313,-0.145,-0.00508,-0.124,-0.0396,-0.126
GAAGACA,0.0354,0.151,0.69,1.1,0.0807,1.98,0.291,0.109,0.132,0.255
CCAGCAG,0.02,0.0261,-0.461,-0.42,0.108,-0.912,0.292,-0.0201,0.0319,-0.11
CAATAGC,-0.0356,-0.026,-0.897,-1.26,-0.0921,-1.19,0.157,-0.022,0.0729,-0.078
TCTCCTT,-0.0627,-0.222,-0.026,-1.49,-0.0509,0.485,-0.496,-0.217,-0.144,-0.0908
